Among the data in the antibiotic and cytotoxicity screens of Wong et al. (2023) are cytotoxicity call and growth inhibition call values, retold here.

The subject of one assay is HSkMC. Briefly: cytotoxicity call (relative viability < 0.9). The following applies: 10 µM.
A further assay relates to HepG2. Description: cytotoxicity call (relative viability < 0.9). To be noted: 10 µM.
For a further assay, the system named is S. aureus RN4220. Description: growth inhibition call (relative growth <= 0.2). The following applies: 50 µM.

Some of the results follow.

With `Cc1ccc2n[nH]c(C(=O)N3CCN4C(=O)CNC(=O)[C@@H]4C3)c2c1`, the cytotoxicity call with HSkMC and with HepG2 was “inactive” throughout. The growth inhibition call with S. aureus RN4220 was “inactive”.
Take `CC(C)NC(=O)N(C)C[C@@H]1Oc2c(NC(=O)NC3CCCCC3)cccc2C(=O)N([C@@H](C)CO)C[C@@H]1C`: the cytotoxicity call in the assay on HSkMC and in the assay on HepG2 was “inactive” in each case. Moreover, the growth inhibition call in the assay on S. aureus RN4220 is “inactive”.
Regarding `COC1=C(OC)C(=O)C(CC=C(C)CCC=C(C)CCC=C(C)CCC=C(C)CCC=C(C)CCC=C(C)CCC=C(C)CCC=C(C)CCC=C(C)CCC=C(C)C)=C(C)C1=O`, the cytotoxicity call in the assay with HSkMC and in the assay on HepG2 was “inactive” each time. Moreover, the growth inhibition call in the assay with S. aureus RN4220 is “inactive”.
As to `C[C@@H]1CN([C@H](C)CO)C(=O)c2cc(NS(C)(=O)=O)ccc2O[C@H]1CN(C)C(=O)Nc1ccc2c(c1)OCO2`, the cytotoxicity call in the assay on HSkMC and with HepG2 was “inactive” in each case. In the assay on S. aureus RN4220, the growth inhibition call is “inactive”.
On to `NC(=O)C[C@H](NC(=O)Cc1ccc(O)cc1O)C(=O)O`, for which the cytotoxicity call with HSkMC and with HepG2 was “inactive” in each case. Besides, the growth inhibition call in the assay with S. aureus RN4220 was “inactive”.
Regarding `CN(C)CC(=O)Nc1ccc2c(c1)C(=O)N(C)[C@H]1CC[C@H](CC(=O)Nc3cccc(Cl)c3)O[C@@H]1CO2`, the cytotoxicity call in the assay on HSkMC and in the assay on HepG2 was “inactive” in each case. Further, the growth inhibition call with S. aureus RN4220 was “inactive”.
As for `Cc1ccc(S(=O)(=O)Nc2ccc3c(c2)C(=O)N([C@@H](C)CO)C[C@H](C)[C@H](CN(C)C(=O)Nc2cccc4ccccc24)OCCCC[C@@H](C)O3)cc1`, the cytotoxicity call with HSkMC and in the assay on HepG2 was “inactive” throughout. Moreover, in the assay with S. aureus RN4220, the growth inhibition call is “inactive”.
On to `O=S(=O)(NCC[C@H]1CC[C@H](NS(=O)(=O)c2ccccc2Cl)[C@@H](CO)O1)c1ccc(Cl)cc1`, for which the cytotoxicity call in the assay on HSkMC and in the assay with HepG2 was “inactive” throughout. Moreover, in the assay on S. aureus RN4220, the growth inhibition call is “inactive”.
Consider `C[C@@H]1CN([C@H](C)CO)C(=O)c2cc(NC(=O)CCC(F)(F)F)ccc2O[C@@H](C)CCCCO[C@@H]1CN(C)Cc1ccncc1`, for which the cytotoxicity call in the assay with HSkMC and in the assay with HepG2 was “inactive” in each case. For the same compound, in the assay on S. aureus RN4220, the growth inhibition call was “inactive”.
In the case of `COc1ccc(COC[C@]23NC(=S)N(C(=O)c4ccccc4)[C@H](c4ccccc4O2)[C@H]3CO[Si](C)(C)C(C)(C)C)cc1`, the cytotoxicity call in the assay with HSkMC and in the assay with HepG2 was “inactive” in each case. The growth inhibition call with S. aureus RN4220 was “inactive”.
As for `C[C@H]1CCCCO[C@@H](CN(C)Cc2ccncc2)[C@@H](C)CN([C@@H](C)CO)C(=O)c2cc(NC(=O)Cc3ccccc3)ccc2O1`, the cytotoxicity call with HSkMC and in the assay with HepG2 was “inactive” throughout. In addition, the growth inhibition call in the assay on S. aureus RN4220 is “inactive”.
`C[C@@H]1CN([C@H](C)CO)C(=O)CCCn2nncc2CO[C@H]1CN(C)S(=O)(=O)c1ccc(-c2ccccc2)cc1`: the cytotoxicity call with HSkMC and with HepG2 was “inactive” each time. In addition, the growth inhibition call in the assay on S. aureus RN4220 was “inactive”.
Regarding `CCCCN(CCCC)CC(O)c1cc(Cl)cc2c1-c1ccc(Cl)cc1C2=Cc1ccc(Cl)cc1` (configuration not stated), the cytotoxicity call in the assay on HSkMC was “inactive”. Moreover, in the assay with HepG2, the cytotoxicity call is “active”. Further, in the assay with S. aureus RN4220, the growth inhibition call is “inactive”.
On to `C[C@@H]1CN([C@H](C)CO)C(=O)c2ccccc2-c2ccccc2CO[C@@H]1CN(C)C(=O)c1cc(Cl)cc(Cl)c1`, for which the cytotoxicity call in the assay with HSkMC and in the assay on HepG2 was “inactive” in each case. The growth inhibition call in the assay with S. aureus RN4220 is “inactive”.
As to `CC(C)N1C[C@H](C)[C@@H](CN(C)Cc2ccc(Cl)c(Cl)c2)Oc2c(cccc2-c2cn(-c3ccncc3)nn2)C1=O`, the cytotoxicity call in the assay on HSkMC and with HepG2 was “inactive” in each case. For the same compound, the growth inhibition call in the assay on S. aureus RN4220 is “inactive”.
On to `C[C@H]1CN([C@@H](C)CO)C(=O)c2cc(NS(C)(=O)=O)ccc2O[C@@H]1CN(C)S(=O)(=O)c1cn(C)cn1`, for which the cytotoxicity call in the assay on HSkMC and in the assay with HepG2 was “inactive” throughout. The growth inhibition call in the assay with S. aureus RN4220 is “inactive”.
On to `O=C(C[C@@H]1CC[C@@H]2[C@H](COC[C@@H](O)CN2C(=O)c2cnccn2)O1)NCc1ccc(Oc2ccccc2)cc1`, for which the cytotoxicity call in the assay on HSkMC and in the assay with HepG2 was “inactive” throughout. Further, the growth inhibition call with S. aureus RN4220 is “inactive”.
On to `CC(C)CC#Cc1ccc2c(c1)O[C@@H](CN(C)C(=O)c1ccccn1)[C@H](C)CN([C@@H](C)CO)S2(=O)=O`, for which the cytotoxicity call with HSkMC and with HepG2 was “inactive” in each case. The growth inhibition call in the assay with S. aureus RN4220 is “inactive”.
As for `COc1cccc(NC(=O)N[C@@H]2CC[C@@H](CC(=O)N3CCN(C)CC3)O[C@@H]2CO)c1`, the cytotoxicity call in the assay on HSkMC was “inactive”. For the same compound, in the assay on HepG2, the cytotoxicity call was “active”. The growth inhibition call with S. aureus RN4220 was “inactive”.
Regarding `C[C@H]1CN([C@@H](C)CO)S(=O)(=O)c2ccc(-c3ccncc3)cc2O[C@@H]1CN(C)S(=O)(=O)c1ccccc1F`, the cytotoxicity call in the assay on HSkMC and with HepG2 was “inactive” each time. The growth inhibition call in the assay with S. aureus RN4220 was “inactive”.
For `C[C@H](CO)N1C[C@H](C)[C@H](CN(C)C(=O)Nc2ccc(C(F)(F)F)cc2)OCCCC[C@H](C)Oc2ccc(NC(=O)Nc3ccc(F)cc3)cc2C1=O`, the cytotoxicity call in the assay with HSkMC and with HepG2 was “inactive” in each case. In the assay on S. aureus RN4220, the growth inhibition call is “inactive”.
On to `C[C@H](CO)N1C[C@H](C)[C@H](CN(C)Cc2ccc(C(F)(F)F)cc2)Oc2c(NC(=O)Nc3ccc4c(c3)OCO4)cccc2C1=O`, for which the cytotoxicity call with HSkMC and in the assay with HepG2 was “inactive” in each case. Besides, the growth inhibition call in the assay on S. aureus RN4220 is “inactive”.
Regarding `C[C@H](CO)N1C[C@H](C)[C@@H](CN(C)S(=O)(=O)c2cccs2)Oc2ccc(NS(=O)(=O)c3cccs3)cc2C1=O`, the cytotoxicity call in the assay with HSkMC and in the assay with HepG2 was “inactive” throughout. Besides, in the assay with S. aureus RN4220, the growth inhibition call was “inactive”.
As for `C=C(C)CCn1cccc1C(C)=O`, the cytotoxicity call in the assay on HSkMC and in the assay with HepG2 was “inactive” each time. Further, in the assay with S. aureus RN4220, the growth inhibition call was “inactive”.
Turning to `C[C@@H]1CN([C@@H](C)CO)C(=O)c2cc(NC(=O)Nc3cccc4ccccc34)ccc2O[C@H]1CN(C)Cc1ccc2c(c1)OCO2`, the cytotoxicity call with HSkMC and in the assay on HepG2 was “inactive” throughout. Also, the growth inhibition call in the assay on S. aureus RN4220 was “inactive”.
On to `O=C(CCCCCC(=O)N/N=C/[C@H](O)[C@@H](O)[C@H](O)CO)NO`, for which the cytotoxicity call in the assay with HSkMC and in the assay with HepG2 was “inactive” each time. In addition, the growth inhibition call in the assay on S. aureus RN4220 was “inactive”.
With `CNCC(=O)O`, the cytotoxicity call with HSkMC and in the assay on HepG2 was “inactive” throughout. In addition, in the assay with S. aureus RN4220, the growth inhibition call was “inactive”.
Consider `Cc1noc(C)c1NC(=O)N(C)C[C@H]1Oc2ccc(NS(C)(=O)=O)cc2CC(=O)N([C@@H](C)CO)C[C@@H]1C`, for which the cytotoxicity call with HSkMC and with HepG2 was “inactive” in each case. In the assay with S. aureus RN4220, the growth inhibition call is “inactive”.
Consider `COc1ccc(S(=O)(=O)N(C)C[C@@H]2OCCCC[C@@H](C)Oc3ccc(NC(=O)Nc4ccccc4)cc3C(=O)N([C@@H](C)CO)C[C@@H]2C)cc1`, for which the cytotoxicity call in the assay on HSkMC (human skeletal muscle cells) and in the assay on HepG2 was “inactive” each time. Moreover, the growth inhibition call with S. aureus RN4220 is “inactive”.
